Test results: PubChem BioAssay AID686971 (National Center for Advancing Translational Sciences (NCATS), 2013)
In all, about 360,000 compounds went through this assay and about 7,500 (2.1%) were called active. Inconclusive results, whose numbers are uncertain, are shown with a selection of clear calls. The call rests on the fitted dose curve; in most records, active means well fitted cell-killing curve with a large enough effect; inconclusive means small, poorly fitted or top-dose-only effect, or effect the other way, or another doubt; inactive means no such curve, though single readings can be large or run the other way. Potencies of inconclusive entries are left out as doubtful fits.

assay: qHTS for induction of synthetic lethality in tumor cells producing 2HG: qHTS for the HT-1080-IDH1KD cell line; conditions: HT-1080 IDH1 knockdown viability, ATP luminescence, 48 h; activity, negative = toxicity: at 46.1 µM (top of the series) unless noted;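 on activity, negative = toxicity: 0% = DMSO wells and -100% = cell-free medium wells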
Summary of the method: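 Viability of IDH1-knockdown HT-1080 fibrosarcoma cells was assessed by CellTiter-Glo after 48 h at 37 °C with titrated compound; concentration-effect curves were classified by fit quality and response size.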
Potency means the concentration at half of the fitted maximal effect; tags describe the fitted curve by direction and shape.

SMILES | Potency | activity, negative = toxicity
O=c1/c(=C\c2cccn2-c2ccccc2)sc2nc3ccccc3n12 | inactive | 
CCN(CC)S(=O)(=O)c1ccc2oc(Nc3ccc4c(c3)OCCO4)nc2c1 | inconclusive [cytotoxic, partial curve] | 
CCC1CCCCN1C(=O)CSc1nc(N)cc(N)n1 (stereo unspecified) | inactive | 
O=S(=O)(NC1c2cccc3cccc(c23)C1N1CCNCC1)c1ccccc1 (stereo unspecified) | inconclusive [cytotoxic, single point] | 
O=C(NCC(c1cccnc1)N1CCOCC1)Nc1ccccc1 (stereo unspecified) | inactive | 
O=C(CCCN1C(=O)/C(=C/c2cccs2)SC1=S)NNC(=O)c1ccccc1O |  | inconclusive: -31.1% [cytotoxic]
Cc1cc(OC(=O)Nc2ccccc2)ccc1Cl | inactive | 
COc1ccccc1C(=O)NNC(=O)c1nn(Cc2ccccc2)c(=O)c2ccccc12 | inconclusive [cytotoxic, single point] | 
COc1ccc(NC(=O)CN(C)CC(=O)Nc2sc3c(c2C(N)=O)CCC3)cc1 | inactive | 
O=C(NCCCc1ccccc1)c1cccc(S(=O)(=O)N2CCOCC2)c1 | inactive | 
C=CCOc1c(Br)cc(/C=N/O)cc1OCC | inconclusive [cytotoxic, single point] | 
Cn1c(Cn2nnc3ccccc32)nnc1SCC(=O)c1ccc(F)cc1 | inconclusive [cytotoxic, single point] | 
Cc1ccc(-n2cccc2C(=S)N=P(N(C)C)(N(C)C)N(C)C)cc1 | active: 8.2 µM | 
COc1ccccc1N(C)c1cc2c(c3c1ccn3C)C1CCC2C1 (stereo unspecified) | inconclusive [cytotoxic, single point] | 
COc1ccccc1N1CCN(/N=C/c2ccc(O)c(O)c2)CC1 | inconclusive [cytotoxic, full curve, poor fit] | 
COc1cccc(NC(=O)Nc2nc(SC(C)(C)C)ns2)c1 | inconclusive [cytotoxic, single point] | 
Cc1ccnc(NC(=S)N2CCN(c3cccc(C(F)(F)F)c3)CC2)c1 | inconclusive [cytotoxic, single point] | 
CCn1c(CC(=O)Nc2cccc(Cl)c2Cl)nnc1SCCOc1ccc(OC)cc1 | inactive | 
Cc1ccc(-n2ncc3c(=O)n(CC(=O)NCc4ccco4)cnc32)cc1C | inconclusive [cytotoxic, single point] | 
O=C(N/N=C/c1ccc2c(c1)OCO2)c1ccc(NC(=O)c2ccccc2Cl)cc1 | inconclusive [cytotoxic, partial curve] | 
C=C(C)c1cccc(C(C)(C)NC(=O)Nc2nnc(C(C)C)s2)c1 | inactive | 
Cc1ncsc1C(=O)Nc1nc2c(s1)CC(C)CC2 (stereo unspecified) | inconclusive [cytotoxic, single point] | 
Cc1ccc(-c2csc3nc[nH]c(=S)c23)cc1C | active: 20.6 µM | 
COc1ccc(N2CCN(S(=O)(=O)CCNC(=O)C3CCCCC3)CC2)cc1 | inactive | 

SMILES | Potency | activity, negative = toxicity
CCC(C)c1ccccc1NC(=O)c1cc2cccc([N+](=O)[O-])c2[nH]1 (stereo unspecified) | active: 16.4 µM | 
Cc1cc(C)n(-c2ccc(C(=O)Nc3ccc(C)c(S(=O)(=O)N4CCOCC4)c3)cc2)n1 | inconclusive [cytotoxic, full curve, poor fit] | 
CCCCC[C@H](O)/C=C/[C@H]1CCC(=O)[C@@H]1CCCCCCC(=O)N1CCCCC1CO (stereo partly specified) | active: 13 µM | 
O=C(Cc1ccc(Cl)cc1)NCCCNC(=O)c1cccnc1 | inconclusive [cytotoxic, single point] | 
O=C(NC(=S)Nc1ccc2c(c1)OCCO2)c1ccccc1 | inconclusive [cytotoxic, single point] | 
COc1ccc(C)cc1NC(=O)CSc1nnc(COc2ccc(Cl)cc2)n1Cc1ccco1 | inconclusive [cytotoxic, single point] | 
CCOC(=O)Cn1nc(C)n(-c2ccccc2)c1=O | inactive | 
Cc1cccc(OCC(=O)NCC(=O)N/N=C/c2cc(Br)cc(Br)c2O)c1 | inconclusive [cytotoxic, single point] | 
Cc1c(Nc2ccc3nonc3c2[N+](=O)[O-])c(=O)n(-c2ccccc2)n1C | inactive | 
Clc1ccc2nc(COc3ccccc3)[nH]c2c1 | active: 8.2 µM | 
CC1CCCCC1NC(=S)Nc1ccc(SC(F)F)cc1 (stereo unspecified) | inconclusive [cytotoxic, single point] | 
O=C(c1ccncc1)N1CCN(S(=O)(=O)c2ccccc2Br)CC1 | inactive | 
Cc1cc(C)cc(N=Cc2c(O)c3ccccc3oc2=O)c1 |  | inconclusive: -10.2% [cytotoxic]
c1ccc2c(c1)-c1cccc3cncc-2c13 |  | inconclusive: 27.6%
CCC(=O)Nc1ccc(NC(=S)NC(=O)/C=C/c2ccco2)cc1 | inconclusive [cytotoxic, single point] | 
Cc1ccc(NC(=O)/C(=C\c2cccs2)NC(=O)c2ccccc2)cc1 | inactive | 
CCOC(=O)COc1ccc(S(=O)(=O)Nc2ccc3c(c2)OCO3)cc1 | inconclusive [cytotoxic, single point] | 
O=C(c1cnc(N2CCN(c3ccccn3)CC2)c2ccccc12)N1CCN(c2cccc(Cl)c2)CC1 |  | inconclusive: -32.6% [cytotoxic]
COc1ccc(S(=O)(=O)N(C)C[C@@H]2OCc3cn(nn3)CCCC(=O)N([C@@H](C)CO)C[C@H]2C)cc1 | inactive | 
CCOCCCNC(=O)/C(C#N)=C/c1ccc(Cl)c([N+](=O)[O-])c1 | active: 32.6 µM | 
CN(C)c1cc(C(F)(F)F)nc(-c2ccccn2)n1 | inconclusive [cytotoxic, single point] | 
COc1cc(/C=C2\CCc3ccccc3C2=O)cc(OC)c1OC | inconclusive [cytotoxic, single point] | 
COc1cc(OC)cc(-c2cc3ncccc3cn2)c1 | inactive | 
O=C(Nc1nnc([C@H]2C[C@H](O)[C@@H](CO)O2)s1)Nc1ccccc1F | inconclusive [rising, single point] | 

SMILES | Potency | activity, negative = toxicity
Cc1cc2cc(CN(CC3CCCO3)C(=S)Nc3ccccc3)c(=O)[nH]c2cc1C (stereo unspecified) | inconclusive [cytotoxic, single point] | 
COc1ccc(OCC(=O)NNC(=S)NC(=O)C2CC2)cc1 | inconclusive [cytotoxic, single point] | 
COc1ccc(N=C2SC(C(=O)Nc3ccc(OC)cc3)CC(=O)N2CCN2CCOCC2)cc1 (stereo unspecified) | inactive | 
CN(Cc1cccnc1)C(=O)CNC(=O)c1ccc(Cl)cc1Cl | inactive | 
COc1ccc(CC(N)c2csc(NC(=O)CCc3ccccc3)n2)cc1 (stereo unspecified) | inconclusive [cytotoxic, single point] | 
Cc1ccc(S(=O)(=O)Nc2ccc(O)c3cccnc23)cc1 | inconclusive [cytotoxic, single point] | 
CCN1C(=O)/C(=C\c2nc3ccccc3c(=O)n2-c2ccccc2)c2ccccc21 | inconclusive [cytotoxic, partial curve] | 
Nc1c(C(=O)c2ccccc2)sc2nsc(SCCN3CCOCC3)c12 | inconclusive [cytotoxic, partial curve] | 
COc1ccccc1N(CC(=O)NC1CCCC1)C(=O)CNC(=O)c1cccs1 | inactive | 
CCc1ccc(/C=C2\SC(=S)N(CCCC(=O)N(CCO)c3ccccc3)C2=O)cc1 | inconclusive [cytotoxic, single point] | 
Cc1ccccc1NC(=O)COC(=O)c1ccc(S(C)(=O)=O)c([N+](=O)[O-])c1 | active: 10.3 µM | 
NS(=O)(=O)c1ccc(NC(=O)COC(=O)Cc2c[nH]c3ccccc23)cc1 | inconclusive [cytotoxic, partial curve] | 
CN(CCc1ccccc1)C(=O)c1ccc(NC(=O)Cc2ccc(NC(=O)C3CCCN(C(=O)c4ccccc4)C3)cc2)cc1 (stereo unspecified) | inactive | 
O=C(NNC(=O)c1ccccc1O)c1ccc(Cl)c(S(=O)(=O)N2CCc3ccccc32)c1 | inconclusive [cytotoxic, partial curve, poor fit] | 
O=C(CN1CC(=O)Oc2ccccc21)OCC(=O)c1ccccc1 | inconclusive [cytotoxic, single point] | 
Cc1nc(NC(=O)c2ccc(OCC(C)C)cc2)sc1Cc1ccc2c(c1)OCO2 | inconclusive [cytotoxic, single point] | 
Cc1ccc(-c2noc(CSc3nnc(-c4ccncc4)n3-c3ccc(C)cc3)n2)cc1 | inconclusive [cytotoxic, partial curve] | 
O=C(Nc1cccc(Cl)c1)OCCOCCOC(=O)Nc1cccc(Cl)c1 | inconclusive [cytotoxic, partial curve] | 
CCOc1cc(CNCCO)cc(Br)c1OCc1ccccc1 | inconclusive [cytotoxic, single point] | 
Nc1ccc(Nc2nc(-c3ccncc3)cs2)cc1 | inconclusive [cytotoxic, single point] | 
O=C(NC(NC(=S)Nc1cccc(Cl)c1)C(Cl)(Cl)Cl)OCc1ccccc1 (stereo unspecified) | inconclusive [cytotoxic, single point] | 
COc1ccccc1NC(=O)COC(=O)c1ccccc1OCC(=O)Nc1ccc(SC(F)F)cc1 | inconclusive [rising, partial curve, poor fit] | 
CCN(Cc1ccncc1)Cc1c(O)ccc2cc(Br)ccc12 | inconclusive [cytotoxic, single point] | 
